Read counts are not given, so values of variants with three or more changes are uncertain.

B1: CPEB3 Ribozyme (parent)
chain: UAACAGGGGGCCACAGCAGAAGCGUUCACGUCGCAGCCCCUGUCAGAUUCUGGUGAAUCUGCGAAUUCUGCUGUAUAUCUC

In this series the parent is B1. The series can be described thus: self-cleavage, relative activity (ratio to wild type); higher = more cleavage; in vitro, sequencing. In short, it runs like this: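 Barcoded CPEB3 ribozyme mutants, produced by rounds of error-prone PCR, self-cleaved while being transcribed with T7 RNA polymerase for 5 hours at 37°C and during a subsequent 15 min DNase I step before EDTA was added. Sequencing of template-switched cDNA on Illumina gave cleaved and total reads, and DNA sequencing assigned barcodes to variants. Each variant's relative activity is its cleaved/total read fraction divided by the unmutated ribozyme's fraction, averaged across three batches. A variant needed a minimum of 5 reads.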
Turning to UAACAGGGGGCCACAGCAGAGGCGUUCACGUCGCAGCCCCUGUCAGAUUCUGGUGAAUCUGCGAAUUCAGCCGUAUAUCUC [A21G U69A U72C], the self-cleavage is 0.12. On to UAACAGGGGGCCACAGCAGAGGCGUUCACGUCGCAGCCCCUGUCAGAUUCUGGUGAAUCAGCGGAUCCUGCUAUAUAUCUC [A21G U60A A64G U67C G73A], for which the self-cleavage turned out to be 0.12. In the case of UAACAGGGGGCCACAGCAGAGGCGUUCACGUCGCAGCCCCUGUCAGAUUCUGGUGAAUCUGCGAACCCUGCAGGAUAUCUC [A21G U66C U67C U72A U74G], the self-cleavage turned out to be 0.23.

On to UAACAGGGGGCCACAGCAGAGGCGUUCACGUCGCAGCCCCUGUCAGAUCCUGGUGGAUCUGCGAAUUCAGCUGUAUAUCUC [A21G U49C A56G U69A], for which the self-cleavage came to 0.26.

For the variant UAACAGGGGGCCACAGCAGAGGCGUUCACGUCGCAGCCCCUGUCAGAUUCUGGCGAAUCUGCGAAUUCUGCUCUAUAUCUC [A21G U54C G73C], the self-cleavage worked out at 1.19. The result for UAACAGGGGGCCACAGCAGAUGCGUUCUCGCCGCAGCCCCUGUCAGAUUCUGGUGAAUCUGCGAAUUCUGCAGUAUAUCUC [A21U A28U U31C U72A] reads 0.09; that for UAACAGGGGGCCACAGCAGAGGCGUUCACGUCGCAGCCCCUGUCAGAUUCCUGUGGAUCUGCGGAUUCUGCUGUACACCUC [A21G U51C G52U A56G A64G U76C U78C], 0.14; that for UAACAGGGGGCCACAGCAGAGGCGUUCACGUCGCAGCCCCUGUCAGAUCCUGGUGAAUCUACGAAUUCUGCUGUAUAUCUC [A21G U49C G61A], 0.07. In the case of UAACAGGGGGCCACAGCAGAGGCGUUCACGUCGCAGCCCCUGUCAGAUUCUGGAGAAUCUGCGAAUUCUGCUGUAUAUUUC [A21G U54A C79U], the self-cleavage was 0.85. The same measure for UAACAGGGGGCCACAGCAGAGGCGUUCACGUCGCAGCCCCUGUCAGAUUCUGGUGAAUCUGCGAAUUCUGCCGUACAUCUC [A21G U72C U76C]: 0.72; for UAACAGGGGGCCACAGCAGAGGCGUUCACGUCGCAGCCCCUGCCAGAUUCUGGUGAAUCCGCGAAUUCUGCUGUAUGCCUC [A21G U43C U60C A77G U78C]: 0.29; for UAACAGGGGGCCACAGCAGAUGCGUUCACGUCGCGGCCCCUGUCUGAUUCUGGUGGAUCUGCGAAUUCUGCUGUAUAACUC [A21U A35G A45U A56G U78A]: 0.54.

As for UAACAGGGGGCCACAGCAGAGGCGUUCACGUCGCAGCCCCUGUCAGAUUCUGGUGAAUCCGCGAAUUCUGCUGGAUAUCUC [A21G U60C U74G], the self-cleavage was 0.69. In the case of UAACAGGGGGCCACAGCAGAGGCGUUCACGUCGCAGCCCCUGCCAGAUUCCGGUGAAUCUGCGGAUUCUGCUGUAUAUCUC [A21G U43C U51C A64G], the self-cleavage was found to be 0.09.

Regarding UAACAGGGGGCCACAGCAGAGGCGUUCACGUCGCAGCCCCUGUCAGAUCCUGGUGAAUCUGCGAAUUCUGCCGUACAUCUC [A21G U49C U72C U76C], the self-cleavage is 0.19. Regarding UAACAGGGGGCCACAGCAGAGGCGUUCACGUCGCAGCCCCUGUCAGAUUCUGGAGAAUCUGCGAAUUCUGCUGCAUAUCUC [A21G U54A U74C], the self-cleavage stood at 1.06. Take UAACAGGGGGCCACAGCAGAGGCGUUCACGUCGCAGCCCCUGUCAGAUUCUGGUGAAUCUGCGAAUACUGUUGUAUACCUC [A21G U67A C71U U78C]: the self-cleavage worked out at 0.22. The same measure for UAACAGGGGGCCACAGCAGAGGCGUUCACGUCGCAGCCCCUGUCAGAUCCUGGUGAAUCUGCGAAUUCUGCUGUACAUCUC [A21G U49C U76C]: 0.29. As for UAACAGGGGGCCACAGCAGAGGCGUUCACGUCGCAGCCCCUGUCAGAUUCUGGCGAAUCUGCGAAUUCUGCUGUAUAUUUC [A21G U54C C79U], the self-cleavage turned out to be 0.66. UAACAGGGGGCCACAGCAGAGGCGUUCACGUCGCAGCCCCUGUCAGAUACAGGUGAAUCUGCGAAUUCUGCUGUGUAUCUC [A21G U49A U51A A75G]: the self-cleavage came to 0.1. As to UAACAGGGGGCCACAGCAGAUGCGUUCGCGUCGCAGCCCCUGUCAGAUUCUGAUGAAUCUGCGAAUUCUGCCGUAUAUCUC [A21U A28G G53A U72C], the self-cleavage was 0.15. With UAACAGGGGGCCACAGCAGAGGCGUUCACGUCGCAGCCCCUGUCAGAUUCUGGUGAAUCUGCGAAUUCUGCCGAAUAUCUC [A21G U72C U74A], the self-cleavage is 0.82. Regarding UAACAGGGGGCCACAGCAGAGGCGUUCACGUCGCAGCCCCUGUCAGAUUCUGGUGAAUCCGCGAAUUCUGCUGUAUAACUC [A21G U60C U78A], the self-cleavage turned out to be 0.17. On to UAACAGGGGGCCACAGCAGAGGCGUUCACGUCGCAGCCCCUGUCAGAUUCUGGCUAAUCUGCGAAUUCUGCUGUAAAUCUC [A21G U54C G55U U76A], for which the self-cleavage is 0.45. The same measure for UAACAGGGGGCCACAGCAGAGGCGUUCACGUCGCAGCCCCUGUCAGAUUCCGGUGAAUCUGCGAAUCCUGCUGUAAAUCUC [A21G U51C U67C U76A]: 0.11. The same measure for UAACAGGGGGCCACAGCAGAGGCGUUCACGUCGCAGCCCCUGCCAGAUUCUGGUGAAUCAGCGAGUCCUGCUGUAUAUCUC [A21G U43C U60A A65G U67C]: 0.14; for UAACAGGGGGCCACAGCAGAGGCGUUCACGUCGCAGCCCCUGUCAGAUUCCGGUGAAUCUGCGAAUUCUGCCGUAUAUCUC [A21G U51C U72C]: 0.59. With UAACAGGGGGCCACAGCAGAUGCGUUCACGUCGCCGCCCCUGUCAGAUUCUGGCGAAUCAGCGAAUUCCGCAGUAUAUCUC [A21U A35C U54C U60A U69C U72A], the self-cleavage came out at 0.13. With UAACAGGGGGCCACAGCAGAGGCGUUCACGUCGCAGCCCCUGUCAGAUUCUGGCGAGUCUGCGAAUUCUGCUGUAUAUCUC [A21G U54C A57G], the self-cleavage stood at 0.37. On to UAACAGGGGGCCACAGCAGAGGCGUUCACGUCGCAGCCCCUGUCAGAUUCCGGCGAAUCUGCGAAUUCUGCUGUAUAUCUC [A21G U51C U54C], for which the self-cleavage amounted to 0.32. With UAACAGGGGGCCACAGCAGAGGCGUUCACGUCGCAGCCCCUGUCAGAUUCUGGUGAAUCAGCGAAUUCUGCUGUAUAUCCC [A21G U60A U80C], the self-cleavage came to 0.28. Regarding UAACAGGGGGCCACAGCAGAGGCGUUCACGUCGCAGCCCCUGUCAGACUCUGGUGAAUCUGCGAAUACUGCUGUAUAUCUC [A21G U48C U67A], the self-cleavage worked out at 0.31. The result for UAACAGGGGGCCACAGCAGAGGCGUUCACGUCGCAGCCCCUGUCAGAUUCUGGUGAACCUGCGAAUUCUGCUGUAUACCUC [A21G U58C U78C] reads 0.21; that for UAACAGGGGGCCACAGCAGAGGCGUUCACGUCGCAGCCCCUGCCAGAUUCCGGUGAAUCCGCGAAUUCUGCUGUAUAUCUC [A21G U43C U51C U60C], 0.15.
